This is one part of the list.
tested on: HSkMC (human skeletal muscle cells); test: cytotoxicity call (relative viability < 0.9); conditions: 10 µM

Q: How did the cytotoxicity call turn out when C=CC(=O)NCCN1CCOCC1 was run?
A: inactive

Q: CNC[C@H]1OCCCC[C@@H](C)Oc2ccc(NC(=O)Nc3cccc4ccccc34)cc2C(=O)N([C@@H](C)CO)C[C@@H]1C was tested. Which cytotoxicity call did it give?
A: inactive

Q: Which cytotoxicity call does the source give for C[C@H]1CCCCO[C@@H](CN(C)Cc2ccc(C(=O)O)cc2)[C@@H](C)CN([C@@H](C)CO)C(=O)c2cc(NS(=O)(=O)c3ccc(F)cc3)ccc2O1 here?
A: inactive

Q: How did the cytotoxicity call turn out when C[C@@H]1CCCCO[C@H](CN(C)Cc2ccc3c(c2)OCO3)[C@H](C)CN([C@@H](C)CO)C(=O)c2cc(NC(=O)CCC(F)(F)F)ccc2O1 was run?
A: inactive

Q: How did the cytotoxicity call turn out when COc1ccccc1S(=O)(=O)N[C@@H]1C=C[C@@H](CC(=O)N2CCN(C)CC2)O[C@@H]1CO was run?
A: inactive

Q: How did the cytotoxicity call turn out when C[C@H]1CCCCO[C@H](CN(C)S(=O)(=O)c2ccc(F)cc2)[C@@H](C)CN([C@@H](C)CO)C(=O)c2cc(NS(=O)(=O)c3ccc(Cl)cc3)ccc2O1 was run?
A: inactive

Q: With COc1ccc(NC(=O)Nc2cccc3c2O[C@@H](CN(C)S(=O)(=O)c2cn(C)cn2)[C@H](C)CN([C@H](C)CO)C3=O)cc1 as the molecule, how does the cytotoxicity call read?
A: inactive

Q: With CN(CC(=O)O)S(=O)(=O)c1ccc(F)cc1 as the molecule, how does the cytotoxicity call read?
A: inactive

Q: How did the cytotoxicity call turn out when CC(C)(C)[S@@](=O)N1Cc2cc(C(=O)NC3CCCCC3)nc(-c3cccc(Br)c3)c2[C@H]1CCO was run?
A: inactive

Q: With COc1ccc(CN(C)C[C@@H]2OCCCC[C@H](C)Oc3ccc(NC(=O)c4ccncc4)cc3C(=O)N([C@H](C)CO)C[C@H]2C)cc1 as the molecule, how does the cytotoxicity call read?
A: inactive

Q: For CC[C@@H]1CN(C(=O)OC)N1, which cytotoxicity call is on record?
A: inactive

Q: How did the cytotoxicity call turn out when C[C@@H]1CN([C@H](C)CO)C(=O)Cc2cc(NC(=O)Nc3ccc(C(F)(F)F)cc3)ccc2O[C@@H]1CN(C)Cc1ccccc1 was run?
A: active

Reference: the antibiotic and cytotoxicity screens of Wong et al. (2023)
